Among the data in PMC9911399 are binding signal (KA relative to UGCAUGU) values, retold here.

For this assay, the target named is T1, RBFOX1 RRM (Homo sapiens) (UniProt Q9NWB1).
T1 sequence: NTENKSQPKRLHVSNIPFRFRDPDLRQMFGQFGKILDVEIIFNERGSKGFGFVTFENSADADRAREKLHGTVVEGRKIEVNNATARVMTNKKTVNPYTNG
The assay is described as follows: EMSA. The note with it: HiTS-Eq, 1 nM pool, 10 min; buffer printed only for the single-RNA assays: 10 mM Tris pH 7.5, 150 mM NaCl, 3.4 mM EDTA, 0.001% NP-40, 30 C.

This is one part of the list.

For the sequence “GGGAGACCGGAAUUCAGAUUGUCCCCCCCAGUUAAAUCCCGUCGUAGCCACCA / CAATCTGAATTCCGGTCTCCC / TGGTGGCTACGACGGGATT”, the binding signal (KA relative to UGCAUGU) is 0.00076.

The sequence “GGGAGACCGGAAUUCAGAUUGUCCUCCCAAAUUAAAUCCCGUCGUAGCCACCA / CAATCTGAATTCCGGTCTCCC / TGGTGGCTACGACGGGATT” came in with a binding signal (KA relative to UGCAUGU) of 0.00175.

As to “GGGAGACCGGAAUUCAGAUUGUCCGGAAUCCUUAAAUCCCGUCGUAGCCACCA / CAATCTGAATTCCGGTCTCCC / TGGTGGCTACGACGGGATT”, the binding signal (KA relative to UGCAUGU) came out at 0.0219.

“GGGAGACCGGAAUUCAGAUUGUCCCGUCUCCUUAAAUCCCGUCGUAGCCACCA / CAATCTGAATTCCGGTCTCCC / TGGTGGCTACGACGGGATT” gave a binding signal (KA relative to UGCAUGU) of 0.0179.

As for “GGGAGACCGGAAUUCAGAUUGUCCUCCCAUCUUAAAUCCCGUCGUAGCCACCA / CAATCTGAATTCCGGTCTCCC / TGGTGGCTACGACGGGATT”, the binding signal (KA relative to UGCAUGU) was 0.00712.

Regarding “GGGAGACCGGAAUUCAGAUUGUCCCCUCCCUUUAAAUCCCGUCGUAGCCACCA / CAATCTGAATTCCGGTCTCCC / TGGTGGCTACGACGGGATT”, the binding signal (KA relative to UGCAUGU) was 0.00667.

The sequence “GGGAGACCGGAAUUCAGAUUGUCCGCCUCCCUUAAAUCCCGUCGUAGCCACCA / CAATCTGAATTCCGGTCTCCC / TGGTGGCTACGACGGGATT” displayed a binding signal (KA relative to UGCAUGU) of 0.0274.

Sequence “GGGAGACCGGAAUUCAGAUUGUCCGUUCUCCUUAAAUCCCGUCGUAGCCACCA / CAATCTGAATTCCGGTCTCCC / TGGTGGCTACGACGGGATT” returned a binding signal (KA relative to UGCAUGU) of 0.0205.

Sequence “GGGAGACCGGAAUUCAGAUUGUCCGGAUCCCUUAAAUCCCGUCGUAGCCACCA / CAATCTGAATTCCGGTCTCCC / TGGTGGCTACGACGGGATT” came in with a binding signal (KA relative to UGCAUGU) of 0.00477.
